# No constants are given. Whether binding was seen depends on the method and setting. Binding seen in cells or lysates may run through a third protein. Sequences can lack the tags named with a protein.
# T1: HA-ATP11A (phosphatidylserine flippase ATP11A) (human) (UniProt P98196)
# T1 sequence: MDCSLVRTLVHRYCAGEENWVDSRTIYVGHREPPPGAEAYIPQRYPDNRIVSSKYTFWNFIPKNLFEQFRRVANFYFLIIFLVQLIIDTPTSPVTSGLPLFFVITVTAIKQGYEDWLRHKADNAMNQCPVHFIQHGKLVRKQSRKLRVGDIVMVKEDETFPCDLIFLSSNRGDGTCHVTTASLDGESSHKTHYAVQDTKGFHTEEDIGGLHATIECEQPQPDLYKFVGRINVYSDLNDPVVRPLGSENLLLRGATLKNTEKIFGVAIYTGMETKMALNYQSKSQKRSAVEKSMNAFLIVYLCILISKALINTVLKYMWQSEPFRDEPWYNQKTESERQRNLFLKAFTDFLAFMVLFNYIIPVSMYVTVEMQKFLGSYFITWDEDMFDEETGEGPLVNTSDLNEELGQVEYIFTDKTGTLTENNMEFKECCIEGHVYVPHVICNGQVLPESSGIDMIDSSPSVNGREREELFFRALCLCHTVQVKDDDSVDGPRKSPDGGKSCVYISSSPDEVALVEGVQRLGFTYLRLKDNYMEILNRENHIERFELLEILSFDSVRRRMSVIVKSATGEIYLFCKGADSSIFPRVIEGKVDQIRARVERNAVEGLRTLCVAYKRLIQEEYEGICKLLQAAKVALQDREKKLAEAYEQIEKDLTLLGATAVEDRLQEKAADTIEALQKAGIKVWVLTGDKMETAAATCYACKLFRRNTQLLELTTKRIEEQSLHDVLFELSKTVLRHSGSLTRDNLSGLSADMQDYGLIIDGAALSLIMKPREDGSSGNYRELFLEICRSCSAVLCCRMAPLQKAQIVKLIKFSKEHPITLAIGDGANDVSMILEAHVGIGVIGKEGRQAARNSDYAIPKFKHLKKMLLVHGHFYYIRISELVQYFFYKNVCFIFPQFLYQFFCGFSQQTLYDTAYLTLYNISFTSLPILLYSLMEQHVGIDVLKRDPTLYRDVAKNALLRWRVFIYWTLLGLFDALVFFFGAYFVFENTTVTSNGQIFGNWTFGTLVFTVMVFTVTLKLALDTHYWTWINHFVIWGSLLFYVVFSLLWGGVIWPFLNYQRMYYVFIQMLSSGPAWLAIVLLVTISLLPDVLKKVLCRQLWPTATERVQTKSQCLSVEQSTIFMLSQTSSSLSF
# Target: T1, HA-ATP11A (phosphatidylserine flippase ATP11A) (human)
# Assay: co-IP; HEK293T cells co-transfected, 48 h; solubilised in 150 mM NaCl, 25 mM Hepes pH 7.2, 1 mM EDTA, 1% Triton X-100 overnight at 4 °C; anti-HA or anti-Myc agarose beads overnight at 4 °C, washed 3x; Western blot; B1FL with B1ΔCT tested without and with coexpressed ATP11A
binder,measurement,value
"B1ΔNT (927-1584) (domain or fragment, UniProt O14514 927-1584) STFAILAQLSADANMEKATLPSVTLIVGCGVSSLTLLMLVIIYVSVWRYIRSERSVILINFCLSIISSNALILIGQTQTRNKVVCTLVAAFLHFFFLSSFCWVLTEAWQSYMAVTGHLRNRLIRKRFLCLGWGLPALVVAISVGFTKAKGYSTMNYCWLSLEGGLLYAFVGPAAAVVLVNMVIGILVFNKLVSKDGITDKKLKERAGASLWSSCVVLPLLALTWMSAVLAVTDRRSALFQILFAVFDSLEGFVIVMVHCILRREVQDAVKCRVVDRQEEGNGDSGGSFQNGHAQLMTDFEKDVDLACRSVLNKDIAACRTATITGTLKRPSLPEEEKLKLAHAKGPPTNFNSLPANVSKLHLHGSPRYPGGPLPDFPNHSLTLKRDKAPKSSFVGDGDIFKKLDSELSRAQEKALDTSYVILPTATATLRPKPKEEPKYSIHIDQMPQTRLIHLSTAPEASLPARSPPSRQPPSGGPPEAPPAQPPPPPPPPPPPPQQPLPPPPNLEPAPPSLGDPGEPAAHPGPSTGPSTKNENVATLSVSSLERRKSRYAELDFEKIMHTRKRHQDMFQDLNRKLQHAAEKDKEVLGPDSKPEKQQTPNKRPWESLRKAHGTPTWVKKELEPLQPSPLELRSVEWERSGATIPLVGQDIIDLQTEV",binding,no binding

# — paper PMC9723945
